Data published in EP4748861A1 (Duality Biologics (Suzhou) Co., Ltd., dated 2025).

Columns and labels:
[1] = target: T1, human EGFR (His-Avi Tag, Kactus Biosystem, EGF-HM401) (human, UniProt P00533 partial chain); assay: SPR, Biacore T200; ratio of affinities
T1 construct: Bought soluble protein used as SPR analyte; also called hEGFR; not shown: His-Avi tag

[2] = target: T2, human HER3 (His-Avi Tag, Kactus Biosystem, HER-HM403) (human, UniProt P21860 partial chain); assay: SPR, Biacore T200; ratio of affinities
T2 construct: Bought soluble protein used as SPR analyte; also called hHER3; not shown: His-Avi tag

[3] = target: T1, human EGFR (His-Avi Tag, Kactus …); assay: SPR, Biacore T200; antibody captured on ProA chip, antigen as analyte; 1:1 Langmuir fit
[4] = target: T2, human HER3 (His-Avi Tag, Kactus …); assay: as above

B1: DBXT005-01 (bispecific antibody, human IgG1, kappa)
heavy 1: QVQLVESGGGVVQPGRSLRLSCAASGFTFSTYGMHWVRQAPGKGLEWVAVIWDDGSYKYYGDSVKGRFTISRDNSKNTLYLQMNSLRAEDTAVYYCARDGITMVRGVMKDYFDYWGQGTLVTVSS[human IgG1 constant region with changes not spelt out]
light: AIQLTQSPSSLSASVGDRVTITCRASQDISSALVWYQQKPGKAPKLLIYDASSLESGVPSRFSGSESGTDFTLTISSLQPEDFATYYCQQFNSYPLTFGGGTKVEIKRTVAAPSVFIFPPSDEQLKSGTASVVCLLNNFYPREAKVQWKVDNALQSGNSQESVTEQDSKDSTYSLSSTLTLSKADYEKHKVYACEVTHQGLSSPVTKSFNRGEC
heavy 2: DIQMTQSPSSLSASVGDRVTITCRASQDISNYLNWYQQKPGKAPKLLIYYTSILHSGVPSRFSGSGSGTDYTFTISSLQPEDIATYFCQQGDTLPPTFGGGTKLEIKGGGGSGGGGSGGGGSGGGGSQVQLQESGPGLVKPSETLSLTCTVSGYSITSAYYWNWIRQPFGKGLEWMGYISYDGRNNFNPSLKNRVTISRDTSKNQFSLKLSSVTAADTAVYYCARDGDYDYFDYWGQGTTVTVSS[human IgG1 Fc with changes not spelt out]
notes: no light chain 2; also called BsAb DBXT005-01; anti-EGFR/HER3 BsAb
In the case of B1, the “fold weaker affinity than the control antibody SI-1X6.4” value [1] is reported as ~15 fold, the “fold stronger affinity than the control antibody SI-1X6.4” value [2] is reported as 25 fold and the Kd [3] is reported as 21.6 nM. It also gave a koff [3] of 0.00132 s⁻¹, a kon [3] of 61300 M⁻¹ s⁻¹ and a Kd [4] of 3.54 nM. The koff [4] was 0.000616 s⁻¹ and the kon [4] was 174000 M⁻¹ s⁻¹.
